The whole screen tested about 45,000 compounds, of which about 65 (0.1%) were called active. The call rests on the fitted dose curve; in most records, active means well fitted activation curve with a large enough effect; inconclusive means small, poorly fitted or top-dose-only effect; inactive means no such curve, though single readings can be large or run the other way. Some of the results follow.
The compounds below were run against Galactocerebrosidase (Homo sapiens) (UniProt P54803) (assay: A Novel Cell-Based Assay to Identify Small Molecules for B -Galactocerebrosidase). Details: 145M-Twi-hGALC-G270D cells (Twitcher mouse brain line with human GALC G270D), HMU-beta-Gal fluorescence, 48 h; series mostly up to 57.5 µM; activation: at the top concentration.
In short: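 Fluorogenic HMU-b-Gal hydrolysis (0.1 mM final, pH 5.2 citrate-phosphate with 1 mg/mL sodium taurocholate; carbonate stop buffer) measures mutant GALC activity after compound treatment of live 145M-Twi Twitcher brain cells stably carrying human GALC-G270D, with wild-type GALC line alongside; activation sought.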
Further: 0% is about no effect; nearly all actives have a fitted effect of over 65% in size.

Chain of UniProt P54803 (P54803 whole entry, looked up): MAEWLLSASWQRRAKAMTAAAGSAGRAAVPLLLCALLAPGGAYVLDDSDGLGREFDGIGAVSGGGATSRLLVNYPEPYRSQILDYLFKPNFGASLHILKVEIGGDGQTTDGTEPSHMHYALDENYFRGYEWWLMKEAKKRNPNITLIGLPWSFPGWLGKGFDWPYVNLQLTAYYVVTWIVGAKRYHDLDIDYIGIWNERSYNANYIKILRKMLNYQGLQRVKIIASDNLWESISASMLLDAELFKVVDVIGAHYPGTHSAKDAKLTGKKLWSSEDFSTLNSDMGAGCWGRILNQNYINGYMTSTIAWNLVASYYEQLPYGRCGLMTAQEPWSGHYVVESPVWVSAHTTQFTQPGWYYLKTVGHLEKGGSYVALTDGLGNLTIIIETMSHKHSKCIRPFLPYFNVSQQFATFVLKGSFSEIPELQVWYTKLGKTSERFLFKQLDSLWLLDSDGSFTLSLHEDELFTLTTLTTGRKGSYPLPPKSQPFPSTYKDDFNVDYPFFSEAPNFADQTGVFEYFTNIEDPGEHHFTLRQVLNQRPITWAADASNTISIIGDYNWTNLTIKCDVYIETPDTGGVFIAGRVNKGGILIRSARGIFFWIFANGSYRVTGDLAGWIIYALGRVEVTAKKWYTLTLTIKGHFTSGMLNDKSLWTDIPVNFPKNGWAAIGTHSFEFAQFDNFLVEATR

**Q.** Which “activation” value does the source give for `Cc1ccc(NC(=O)CSc2nc3ccccc3c3nc(CCc4c(C)n[nH]c4C)nn23)c(C)c1` here?
**A.** The value was inactive: -12%.

**Q.** Which “activation” value does the source give for `Cc1ccc(-c2nn(-c3ccc(F)cc3F)c3c2cnc2c(F)cccc23)cc1` here?
**A.** Its value is inactive: 7.67%.

**Q.** With `COCCNc1oc(-c2ccc(COc3ccc(OC)cc3)o2)nc1C#N` as the compound, how does the “activation” value read?
**A.** Its value is inactive: -33.6%.

**Q.** `Cc1ccc2c(c1)c(=O)c(C(=O)c1ccc3c(c1)OCO3)cn2Cc1cccc(F)c1` was tested. Which “activation” value did it give?
**A.** Its value is inactive: -11.2%.

**Q.** With `Cc1ccc(C(=O)CSc2ncc3c(n2)-c2ccccc2N(Cc2ccc(Cl)cc2)S3(=O)=O)cc1` as the compound, how does the “activation” value read?
**A.** Its value is inactive: -7.29%.

**Q.** How did the “activation” value turn out when `CCc1ccc2oc(-c3cccc(NC(=O)c4cc5ccccc5o4)c3)nc2c1` was run?
**A.** The value was inactive: -2.31%.

**Q.** With `CCCc1nn2c(=O)cc(COC(=O)c3ccc(NC(=O)CCc4ccccc4)cc3)nc2s1` as the compound, how does the “activation” value read?
**A.** Its value is inactive: -15.6%.

**Q.** `Cc1ccccc1C(=O)Nc1nc2nc(C)c(C)c(=O)n2[nH]1` was tested. Which “activation” value did it give?
**A.** Its value is inactive: -0.579%.

**Q.** For `Cc1nc2c(C(=O)O)cnn2c(C)c1Cc1ccccc1`, which “activation” value is on record?
**A.** Its value is inactive: -13.9%.

**Q.** Which “activation” value does the source give for `COc1cccc(NC(=O)c2sc3nc4n(c(=O)c3c2C)CCC4)c1` here?
**A.** Its value is inactive: -6.8%.

**Q.** Which “activation” value does the source give for `Cc1cc2cc3c(C)cc(=O)oc3c(C)c2o1` here?
**A.** Its value is inactive: -9.57%.

**Q.** Which “activation” value does the source give for `CC(=O)Nc1c(I)cc(I)c(C(=O)O)c1I` here?
**A.** The value was inactive: -15.2%.

**Q.** How did the “activation” value turn out when `CCCCOc1ccc(CNC(=O)c2ccc(-c3nc(CN4CCc5ccccc54)c(C)o3)cc2)cc1` was run?
**A.** Its value is inactive: -15.2%.

**Q.** With `CC(C)(C)c1ccc(O)c(O)c1` as the compound, how does the “activation” value read?
**A.** The value was inactive: -12.3% [at 114 µM].

**Q.** How did the “activation” value turn out when `CCc1nc2nc(C)cc(Nc3ccc(OC)cc3)n2n1` was run?
**A.** Its value is inactive: 3.38%.

**Q.** For `COc1cccc(CN(Cc2ccco2)c2cnc(S(C)(=O)=O)nc2C(=O)Nc2cccc(Cl)c2C)c1`, which “activation” value is on record?
**A.** Its value is inactive: -14%.

**Q.** How did the “activation” value turn out when `Cn1c(SCC(=O)N2CCCc3ccccc32)ncc(C(=O)Nc2ccc(Cl)cc2)c1=O` was run?
**A.** Its value is inactive: -12.4%.

**Q.** Which “activation” value does the source give for `CCS(=O)(=O)N1CCC(C(=O)NCCC(C)C)CC1` here?
**A.** The value was inactive: 3.85%.

**Q.** Which “activation” value does the source give for `Cc1ccc(-c2nnc(Nc3cccc(Cl)c3)c3ccccc23)cc1S(=O)(=O)NCC1CCCO1` (stereo not drawn) here?
**A.** The value was inactive: -11%.

**Q.** For `CSCCC(NS(=O)(=O)c1ccc2c(c1)oc(=O)n2C)C(=O)NCCc1ccc(C)cc1` (stereo not drawn), which “activation” value is on record?
**A.** Its value is inactive: 1.72%.

**Q.** For `CN(C1CCCCC1)S(=O)(=O)c1ccc2c(c1)c(=O)c(C(=O)NCCc1ccc(Cl)cc1)cn2C`, which “activation” value is on record?
**A.** Its value is inactive: -22.8%.

**Q.** `O=C(c1cccc([N+](=O)[O-])c1)N1c2ncnn2C2(CCCCC2)[C@@H]2CCCC[C@@H]21` was tested. Which “activation” value did it give?
**A.** Its value is inactive: -12.4%.

**Q.** For `CC(=O)Nc1ccc(S(=O)(=O)NC2(C(F)(F)F)NC(=O)N(c3ccc(C)cc3)C2=O)cc1` (stereo not drawn), which “activation” value is on record?
**A.** The value was inactive: -16.5%.

**Q.** How did the “activation” value turn out when `Cc1ccc(S(=O)(=O)c2cnc(SCC(=O)Nc3ccc4c(c3)OCCO4)[nH]c2=O)cc1` was run?
**A.** Its value is inactive: -17.4%.

**Q.** For `O=S(=O)(NCCSc1nnnn1-c1ccccc1)c1ccc(F)cc1`, which “activation” value is on record?
**A.** The value was inactive: -20.9%.

**Q.** How did the “activation” value turn out when `Cc1ccc(-c2onc(C)c2C)cc1S(=O)(=O)NCc1ccco1` was run?
**A.** Its value is inactive: -7.19%.

**Q.** How did the “activation” value turn out when `COc1cccc(OCCCCn2c(-c3ccc(Cl)cc3)nc3ccccc3c2=O)c1` was run?
**A.** The value was inactive: -6.82%.

**Q.** For `O=c1[nH]cnc2nc[nH]c12`, which “activation” value is on record?
**A.** Its value is inactive: -7.31%.

**Q.** `CCN(CC)c1ccc(NC(=O)CSc2nnc(C)c(=O)[nH]2)cc1` was tested. Which “activation” value did it give?
**A.** Its value is inactive: -14%.

**Q.** For `CCCN(CCC)C(=O)CSc1nnc2cc(C)c3cc(C)cc(C)c3n12`, which “activation” value is on record?
**A.** The value was inactive: -0.699%.

**Q.** How did the “activation” value turn out when `COc1ccc2c(c1)c1c(c(=O)n(-c3ccccc3C)c(=O)n1CC(=O)NCc1ccc(C)cc1)n2C` was run?
**A.** Its value is inactive: -3.5%.

**Q.** For `Cc1cc(Nc2ccc(C)c(C)c2)n2cnnc2n1`, which “activation” value is on record?
**A.** Its value is inactive: -4.64%.

**Q.** With `Cc1ccc(S(=O)(=O)c2cnc(SCC(=O)Nc3cc(C)cc(C)c3)nc2N)cc1` as the compound, how does the “activation” value read?
**A.** Its value is inactive: -2.99%.

**Q.** `Cc1cccc(OCc2ccc(-c3nc(C#N)c(NCCN(C)C)o3)o2)c1` was tested. Which “activation” value did it give?
**A.** Its value is inactive: -8.87%.

**Q.** `Cc1ccc2cccc(NC(=O)COc3ccccc3[N+](=O)[O-])c2n1` was tested. Which “activation” value did it give?
**A.** Its value is inactive: -16.8%.

**Q.** With `CCCCc1ccc(-n2nc3cc(C)c(NC(=O)Cc4ccccc4)cc3n2)cc1` as the compound, how does the “activation” value read?
**A.** Its value is inactive: -18.1%.

**Q.** Which “activation” value does the source give for `CCOC(=O)c1c(C)oc2nc(C)nc(NCc3ccccc3Cl)c12` here?
**A.** Its value is inactive: -19.5%.

**Q.** How did the “activation” value turn out when `COC(=O)c1ccccc1NC(=O)Cn1cc(S(=O)(=O)Cc2ccccc2F)c2ccccc21` was run?
**A.** The value was inactive: 3.18%.

**Q.** `CCc1ccc(N(CC)C(=O)c2ccc3c(=O)n4c(nc3c2)CCCCC4)cc1` was tested. Which “activation” value did it give?
**A.** The value was inactive: -10.1%.

**Q.** Which “activation” value does the source give for `COC(=O)c1c(-c2cccs2)csc1NC(=O)c1ccc(Cl)cc1` here?
**A.** Its value is inactive: -26.1%.

**Q.** Which “activation” value does the source give for `COCCN1C(=O)c2[nH]nc(-c3ccccc3O)c2C1c1ccc(OCc2ccccc2)c(OC)c1` (stereo not drawn) here?
**A.** The value was inactive: 0.929%.

**Q.** With `Cc1cccc(CN2C(=O)c3ccccc3Sc3ccc(C(=O)N4CCCC4)cc32)c1` as the compound, how does the “activation” value read?
**A.** Its value is inactive: -35.1%.

**Q.** For `O=C(Nc1cc(Cl)cc(Cl)c1)c1ccc(F)c(S(=O)(=O)NC2CCCC2)c1`, which “activation” value is on record?
**A.** The value was inactive: -10.7%.

**Q.** How did the “activation” value turn out when `CCOC(=O)c1c(NC(=O)COc2ccccc2F)sc2c1CCCC2` was run?
**A.** Its value is inactive: 0.746%.

**Q.** Which “activation” value does the source give for `CCOC(=O)c1c(NC(=O)/C=C/c2ccccc2)sc2c1CCCC2` here?
**A.** The value was inactive: -13.4%.

**Q.** How did the “activation” value turn out when `COc1ccc(N2CCN(C(=O)c3ccc(C)c(NC(=O)c4nsc5ccccc45)c3)CC2)cc1` was run?
**A.** The value was inactive: -14.2%.

**Q.** For `COc1ccc(OC)c(S(=O)(=O)NCCc2sc(-c3ccc(C)cc3)nc2C)c1`, which “activation” value is on record?
**A.** Its value is inactive: 2.74%.

**Q.** How did the “activation” value turn out when `Cc1ccc2c(=O)c(C(=O)c3ccc(F)cc3)cn(CC(=O)NCc3ccccc3)c2n1` was run?
**A.** Its value is inactive: -10.8%.
